# Inconclusive results, whose numbers are uncertain, are shown with a selection of clear calls. For some assays here: Potencies of inconclusive entries are left out as doubtful fits. Activity calls are given as the source filed them. Calls come from the whole dose curve; as a rule, active = well fitted curve in the direction sought with a large enough effect; inconclusive = small, poorly fitted or top-dose-only effect, or another doubt; inactive = no such curve, though single readings can be large; an effect the other way counts as inactive or inconclusive.
# Columns and labels:
# [1] = P-glycoprotein substrates identified in KB-3-1 adenocarcinoma cell line, qHTS therapeutic library screen (AID 1346986);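 note: potency is the fitted concentration of half-maximal effect; potency is for cytotoxicity meaning loss of cell viability; nearly all actives have a fitted effect of over 60% in size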
# Summary of the method: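 Viability by CellTiter-Glo after 72 h compound exposure at 37 degree C, 5% CO2. Cytotoxic call: curve class -1.1 to -2.4, maximum response >50%, AC50 < 10 uM, compared across KB-3-1 and P-gp-overexpressing KB-8-5-11.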
# [2] = qHTS to identify inhibitors of the type 1 interferon - major histocompatibility complex class I in skeletal muscle: primary screen against the NCATS Mechanism Interrogation Plate v5.0 (MIPE) Libary (AID 1347411); conditions: iHSKM cells + IFN-b, HiBiT-tagged MHC-I luminescence, 24 h; activity change, negative = inhibition: at 45.8 µM (top of the series) unless noted; note: potency is the fitted concentration of half-maximal effect; nearly all actives have a fitted effect of over 65% in size
# Summary of the method: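 IFN-beta-driven (4 ng/ml) HLA-B-HiBit expression in CRISPR-tagged C25cl48 myoblasts; compounds 11-pt, 1:3, max 46 uM, 24 hr exposure; lytic NanoLuc complementation luminescence.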
# [3] = Primary qHTS for inhibitors of nuclear receptor binding SET domain protein 2 (NSD2) in an isogenic RCH-ACV NSD2 p.E1099K mutant (9B) (AID 1645876); conditions: activity change, negative = viability loss: at 44.9 µM (top of the series) unless noted; note: potency is the fitted concentration of half-maximal effect; nearly all actives have a fitted effect of over 70% in size
# [4] = molecular target: Phospholipid hydroperoxide glutathione peroxidase GPX4 (Homo sapiens) (UniProt P36969); experiment: Primary qHTS Assay for Inhibitors of Recombinant Selenoprotein Glutathione Peroxidase 4 (GPX4) (AID 1845192); conditions: activity change, negative = inhibition: at 50 µM (top of the series) unless noted; note: nearly all actives have a fitted effect of over 65% in size
# Summary of the method: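 Steps: GPX4 plus compound, 30 min RT; add GR/GSH/NADPH master mix; start with cumene hydroperoxide; read 340/450 nm fluorescence at 0 and 15 min. Finals were 200 nM GPX4, 1 mM GSH, 0.5 mM CHP, 0.5 mM NADPH, 100 nM GR.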
# [5] = qHTS assay to identify inhibitors of the type 1 interferon - major histocompatibility complex class I in skeletal muscle: Counter screen cell viability and HiBit confirmation (AID 1347412); conditions: iHSKM muscle cells + IFN-b, HiBiT or CellTiter-Glo, 24 h; Viability; note: potency is the fitted concentration of half-maximal effect; nearly all actives have a fitted effect of over 60% in size
# Summary of the method: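 CRISPR HLA-B*08:01-HiBit immortalized human myoblasts (C25cl48) stimulated with 4 ng/ml IFN-beta and compounds (12-point 1:3, top 46 uM final) for 24 h at 37 C. Duplicate plates read by HiBit lytic luminescence or CellTiter Glo ATP.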
# Tags give direction and shape of the fitted curve.
# UniProt P36969, sequence (P36969 whole entry, looked up): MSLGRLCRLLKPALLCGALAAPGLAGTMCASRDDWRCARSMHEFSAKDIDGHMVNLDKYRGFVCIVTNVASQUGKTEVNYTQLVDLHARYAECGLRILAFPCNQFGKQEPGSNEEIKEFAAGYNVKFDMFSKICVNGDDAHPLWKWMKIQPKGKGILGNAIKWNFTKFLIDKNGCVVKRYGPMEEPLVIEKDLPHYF
compound,measurement,setting,value
COc1cc(OC)cc(N(CCNC(C)C)c2ccc3ncc(-c4cnn(C)c4)nc3c2)c1,Potency,[1],active: 10.3 µM
same,Potency,[2],active: 13.1 µM
same,Potency,[3],active: 11.8 µM
same,Potency,[4],inactive
same,Potency,[5],"inconclusive [cytotoxic, partial curve, poor fit]"
